Some of the results follow. At the low end of the ranking, values are background and their order means little.

This test has as its target T1, GST-Rok-C97-191 (UniProt O34857).
T1 sequence: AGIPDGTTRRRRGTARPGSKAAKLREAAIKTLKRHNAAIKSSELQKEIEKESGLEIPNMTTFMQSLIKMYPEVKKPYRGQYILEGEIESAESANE
The test is described as follows: protein binding microarray.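 Also: rank score from −0.5 (least bound) to 0.5 (best bound).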 Conditions: Rok is a gene silencer of Bacillus subtilis; high values mean tight binding; most listed sequences are background and not binding sites; double strand, one strand shown.
Sequence GGCTTCTA gave a binding signal of 0.11 E-score.

GTATTGGA gave a binding signal of 0.0594 E-score.

With AATACGCT, the binding signal was -0.133 E-score.

For the sequence CAAGCAAA, the binding signal was -0.0617 E-score.

CGATCAGC: the binding signal was -0.21 E-score.

Take CGAGTCAA: the binding signal was -0.132 E-score.

Take CGGCCTAG: the binding signal was -0.148 E-score.

GGTCCGCA: the binding signal is -0.0427 E-score.

With CCGGGAGA, the binding signal was -0.199 E-score.

Sequence CGATAAAG returned a binding signal of 0.058 E-score.

The sequence AGCGCGTA registered a binding signal of 0.0748 E-score.

Sequence CCGGTAAA showed a binding signal of 0.161 E-score.

As to CCCTGGAC, the binding signal is -0.252 E-score.

Consider CTATCGTC, for which the binding signal amounted to 0.0749 E-score.

The sequence CGAGTATC displayed a binding signal of 0.0674 E-score.

In the case of GACCAATA, the binding signal is -0.138 E-score.

CTATACAA registered a binding signal of 0.3 E-score.

Consider AATCGCCG, for which the binding signal was -0.005 E-score.

With ACACGCTG, the binding signal was -0.145 E-score.

The sequence ATTATATA had a binding signal of 0.446 E-score.

Regarding TGCTTTAA, the binding signal was -0.0993 E-score.

As for GGCCTGAC, the binding signal is -0.247 E-score.

As to ACGCAACG, the binding signal is -0.0768 E-score.

Sequence ACGGAATA had a binding signal of 0.137 E-score.

For the sequence GAGGCACC, the binding signal was -0.182 E-score.

For CTTGCCCC, the binding signal was -0.127 E-score.

On to ACTCCTAC, for which the binding signal is 0.158 E-score.

In turn, AACTGCTC had a binding signal of 0.0471 E-score.

As to TAAGCCGA, the binding signal was -0.00989 E-score.

Turning to ACAATCAG, the binding signal was -0.0199 E-score.

CAGGGCTA: the binding signal is -0.0484 E-score.

For CGGGTACC, the binding signal was -0.0812 E-score.

Regarding GAAAGCCA, the binding signal is -0.228 E-score.

For the sequence CCGCGATC, the binding signal is -0.101 E-score.

Regarding CCGACACC, the binding signal is -0.191 E-score.

Turning to AACTCGCC, the binding signal is -0.127 E-score.

As for CCAATACG, the binding signal is -0.068 E-score.

With CGTTATTC, the binding signal turned out to be 0.0136 E-score.

With ATCTACGA, the binding signal stood at 0.333 E-score.

On to CGATGCCG, for which the binding signal is -0.121 E-score.

Sequence CTAGTCAC showed a binding signal of 0.162 E-score.

With ATCAAGTC, the binding signal is -0.0524 E-score.

On to ACCTTCCG, for which the binding signal is -0.0992 E-score.

For CCACGTAG, the binding signal is -0.0519 E-score.

CGCCAACG: the binding signal was -0.3 E-score.

Consider TCGATGAA, for which the binding signal is 0.00457 E-score.

As for CGTTCAGC, the binding signal is -0.293 E-score.

As for CTCGACCC, the binding signal is -0.329 E-score.

In turn, TATAGTGA came in with a binding signal of 0.199 E-score.

Turning to AGATCCTC, the binding signal was -0.14 E-score.

Regarding AACGCTGA, the binding signal is 0.0575 E-score.

In turn, ACCGTAAC showed a binding signal of 0.183 E-score.

Regarding TTGTTAAA, the binding signal stood at 0.0419 E-score.

In the case of ACGGATGA, the binding signal is 0.00454 E-score.

Regarding ATCTAGTA, the binding signal was 0.31 E-score.

Consider CAGTTCGG, for which the binding signal was -0.00109 E-score.

As for CCCGTGAA, the binding signal is -0.192 E-score.

Take ACTCCACA: the binding signal was -0.00395 E-score.

AAGGATAA: the binding signal amounted to 0.131 E-score.

AATATGGA gave a binding signal of 0.0515 E-score.

AAAACAAC: the binding signal is 0.116 E-score.

For AATAGTTA, the binding signal was 0.32 E-score.

The sequence ATGTTCAG yielded a binding signal of 0.186 E-score.

Turning to AAGGTTCG, the binding signal turned out to be 0.028 E-score.

Turning to CTTCCCCA, the binding signal was -0.0482 E-score.

As to ACTCTATG, the binding signal was -0.0409 E-score.

As for AAGTCCGT, the binding signal is -0.123 E-score.

As for AGAGGATC, the binding signal was -0.127 E-score.

The sequence ATGCTACC came in with a binding signal of 0.00967 E-score.

ACAGAACT yielded a binding signal of 0.286 E-score.

Turning to GCCGAGTA, the binding signal was -0.104 E-score.

As to CGTTGCCA, the binding signal is -0.142 E-score.

GTGCGGTA: the binding signal was -0.0241 E-score.

Sequence AAGTACAT had a binding signal of 0.283 E-score.

On to CGTATTAC, for which the binding signal worked out at 0.223 E-score.

TAATCCTA returned a binding signal of 0.179 E-score.

GAAACAAA registered a binding signal of 0.0875 E-score.

Regarding GATGTTAA, the binding signal turned out to be 0.0172 E-score.

Turning to GGCGGGGA, the binding signal was -0.313 E-score.

On to CGAGGCCA, for which the binding signal was -0.121 E-score.

Regarding CAAAAGAG, the binding signal is -0.195 E-score.

Regarding AGATCATC, the binding signal was -0.157 E-score.

In the case of AACGGCAC, the binding signal was -0.043 E-score.

Consider CGATCTTA, for which the binding signal worked out at 0.0234 E-score.

With CTGGCAAG, the binding signal was -0.12 E-score.

Consider ACGTAAAA, for which the binding signal was found to be 0.116 E-score.

The sequence TCAATACA yielded a binding signal of 0.0914 E-score.

Consider CGCTCGAA, for which the binding signal was -0.209 E-score.

On to GATCCGAA, for which the binding signal was -0.0447 E-score.

With AGCCGCTC, the binding signal was -0.193 E-score.

As to AAGCACCC, the binding signal is -0.18 E-score.

As for AACTACCC, the binding signal was 0.338 E-score.

With CTAATCGA, the binding signal amounted to 0 E-score.

As for AGAGTTTA, the binding signal turned out to be 0.105 E-score.

With AACACCAA, the binding signal is -0.00863 E-score.

AACACTTC came in with a binding signal of 0.0552 E-score.

Sequence ATTGCTTC showed a binding signal of 0.103 E-score.

The sequence ACTAAATG gave a binding signal of 0.226 E-score.

ATTTACCA displayed a binding signal of 0.308 E-score.

With ACTTAAGT, the binding signal was 0.118 E-score.

In the case of AGTCACTA, the binding signal is 0.0882 E-score.

In turn, GAATAAGC yielded a binding signal of 0.0331 E-score.

Consider ACACTTGG, for which the binding signal was -0.0674 E-score.

Take GGCACATA: the binding signal is -0.0823 E-score.

For the sequence ACGGCGTC, the binding signal is -0.0966 E-score.

Take GGGGCGAC: the binding signal is -0.311 E-score.

In the case of CCGAAAAA, the binding signal is -0.00198 E-score.

AAATCGAG came in with a binding signal of 0.0279 E-score.

As to CGCGAGGC, the binding signal is -0.179 E-score.

Sequence TATCCGCA had a binding signal of 0.119 E-score.

Take CGGAAATC: the binding signal came out at 0.0274 E-score.

For the sequence CAGACTCG, the binding signal was -0.0299 E-score.

For the sequence TAAAACGA, the binding signal was determined as 0.027 E-score.

Take CTCTGCAG: the binding signal is -0.16 E-score.

Sequence GGGGTAAA showed a binding signal of 0.153 E-score.

ACTTGTAA: the binding signal came out at 0.168 E-score.

Take CACGGTGC: the binding signal was -0.189 E-score.

As to ATCAAGGC, the binding signal was -0.0755 E-score.

GAGCAGTA displayed a binding signal of 0.094 E-score.

ATAATATA displayed a binding signal of 0.435 E-score.

The sequence CGTCAATA registered a binding signal of 0.0912 E-score.

Take GCAGAGGA: the binding signal was -0.251 E-score.

As for ACAAGGGG, the binding signal is -0.0673 E-score.

In the case of GAACGAGA, the binding signal is -0.0271 E-score.

Take CGTGCCGA: the binding signal is -0.178 E-score.

GTAGTAGA showed a binding signal of 0.368 E-score.

Regarding GCGTTGAA, the binding signal is -0.0546 E-score.

Turning to ACCATCGA, the binding signal worked out at 0.139 E-score.

ATAAAATG: the binding signal amounted to 0.246 E-score.

For CCCGGTGA, the binding signal is -0.253 E-score.

Consider AAGTCCGG, for which the binding signal was -0.203 E-score.

GAGACTGA: the binding signal is -0.0258 E-score.

Turning to AGGACCCC, the binding signal was -0.251 E-score.

TCTGGAAA registered a binding signal of 0.0146 E-score.

As for AATGGCGA, the binding signal is -0.102 E-score.

Sequence AACCATGG registered a binding signal of 0.0755 E-score.

In turn, CCATAAAC yielded a binding signal of 0.0109 E-score.

With CCAGACGC, the binding signal was -0.208 E-score.

Regarding CGACGCTC, the binding signal was -0.217 E-score.

As to GCGCACGC, the binding signal is -0.0982 E-score.

Consider AATGGGCG, for which the binding signal is -0.198 E-score.

For the sequence AGTCGTCA, the binding signal was -0.113 E-score.

Take GCTACGGA: the binding signal is -0.0221 E-score.

As for AACTTGCC, the binding signal was -0.00515 E-score.

For GAGATCAA, the binding signal was -0.157 E-score.

In turn, CACGTATC showed a binding signal of 0.0345 E-score.

Turning to AACTTCTT, the binding signal is -0.0295 E-score.

ACAAATAG yielded a binding signal of 0.227 E-score.

For ACATCACG, the binding signal is -0.0776 E-score.

On to CGGACCCA, for which the binding signal is -0.267 E-score.

Consider ATGTCGAA, for which the binding signal came to 0.247 E-score.

CACCTGAG: the binding signal is -0.203 E-score.

In turn, ACATGAAT had a binding signal of 0.176 E-score.

For ACGTTAAC, the binding signal stood at 0.124 E-score.

For the sequence TCGCCGCA, the binding signal is -0.11 E-score.

Regarding AACCCATC, the binding signal is -0.0678 E-score.

With CCCAAAGC, the binding signal is -0.28 E-score.

Sequence AACTGGTA gave a binding signal of 0.234 E-score.

Sequence AGTCTTAG had a binding signal of 0.0011 E-score.

CAAATGTC: the binding signal is -0.000768 E-score.

Consider CTTGAGAA, for which the binding signal was -0.0606 E-score.

Regarding AGACCAGG, the binding signal was -0.191 E-score.

Consider AGGTGAAA, for which the binding signal was -0.0356 E-score.

Consider CAGTTTAC, for which the binding signal is -0.0392 E-score.

For the sequence GATGGACC, the binding signal is -0.125 E-score.

For CGTCTTAA, the binding signal is -0.115 E-score.

For the sequence ATACGAAG, the binding signal was -0.0146 E-score.

Regarding AACTCGTA, the binding signal was 0.117 E-score.

Turning to TCGGGTCA, the binding signal was -0.126 E-score.

As for GCCTCTAA, the binding signal was -0.142 E-score.

Consider TACGGGCA, for which the binding signal is -0.291 E-score.

With AAAGGGCC, the binding signal is -0.318 E-score.

The values are drawn from PMC6212790.
